# Assay results from PubChem BioAssay AID504332 (National Center for Advancing Translational Sciences (NCATS), 2011).
# About 31,000 (8.9%) of roughly 350,000 compounds were called active. The shares of active, inactive and inconclusive entries below differ from those in the screen. Calls follow the shape of the dose curve; as a rule, active = well fitted inhibition curve with a large enough effect; inconclusive = small, poorly fitted or top-dose-only effect; inactive = no such curve, though single readings can be large or run the other way. Potencies beside an inconclusive call are fits to weak or partial responses and may not hold up.
# Target: Histone-lysine N-methyltransferase EHMT2 (Homo sapiens) (UniProt Q96KQ7)
# Assay: qHTS Assay for Inhibitors of Histone Lysine Methyltransferase G9a; also: nearly all actives have a fitted effect of over 75% in size
# Conditions: G9a H3K9 monomethylation, AlphaScreen, 2 h; activity, negative = inhibition: at 59 µM (top of the series) unless noted
# How it was run: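 Compounds were preincubated with 20 nM G9a for 15 min, after which biotinylated H3K9 peptide (500 nM) and SAM (20 uM) started a 2 h room-temperature reaction. Monomethylated product was quantified by antibody-based AlphaScreen chemiluminescence.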
# % is scaled to controls: 0 for no effect and ±100 for the full control effect; potency is read from the fitted curve at half-maximal effect; tags tell the direction and shape of the fitted curve.
# UniProt Q96KQ7, sequence (Q96KQ7 whole entry, looked up): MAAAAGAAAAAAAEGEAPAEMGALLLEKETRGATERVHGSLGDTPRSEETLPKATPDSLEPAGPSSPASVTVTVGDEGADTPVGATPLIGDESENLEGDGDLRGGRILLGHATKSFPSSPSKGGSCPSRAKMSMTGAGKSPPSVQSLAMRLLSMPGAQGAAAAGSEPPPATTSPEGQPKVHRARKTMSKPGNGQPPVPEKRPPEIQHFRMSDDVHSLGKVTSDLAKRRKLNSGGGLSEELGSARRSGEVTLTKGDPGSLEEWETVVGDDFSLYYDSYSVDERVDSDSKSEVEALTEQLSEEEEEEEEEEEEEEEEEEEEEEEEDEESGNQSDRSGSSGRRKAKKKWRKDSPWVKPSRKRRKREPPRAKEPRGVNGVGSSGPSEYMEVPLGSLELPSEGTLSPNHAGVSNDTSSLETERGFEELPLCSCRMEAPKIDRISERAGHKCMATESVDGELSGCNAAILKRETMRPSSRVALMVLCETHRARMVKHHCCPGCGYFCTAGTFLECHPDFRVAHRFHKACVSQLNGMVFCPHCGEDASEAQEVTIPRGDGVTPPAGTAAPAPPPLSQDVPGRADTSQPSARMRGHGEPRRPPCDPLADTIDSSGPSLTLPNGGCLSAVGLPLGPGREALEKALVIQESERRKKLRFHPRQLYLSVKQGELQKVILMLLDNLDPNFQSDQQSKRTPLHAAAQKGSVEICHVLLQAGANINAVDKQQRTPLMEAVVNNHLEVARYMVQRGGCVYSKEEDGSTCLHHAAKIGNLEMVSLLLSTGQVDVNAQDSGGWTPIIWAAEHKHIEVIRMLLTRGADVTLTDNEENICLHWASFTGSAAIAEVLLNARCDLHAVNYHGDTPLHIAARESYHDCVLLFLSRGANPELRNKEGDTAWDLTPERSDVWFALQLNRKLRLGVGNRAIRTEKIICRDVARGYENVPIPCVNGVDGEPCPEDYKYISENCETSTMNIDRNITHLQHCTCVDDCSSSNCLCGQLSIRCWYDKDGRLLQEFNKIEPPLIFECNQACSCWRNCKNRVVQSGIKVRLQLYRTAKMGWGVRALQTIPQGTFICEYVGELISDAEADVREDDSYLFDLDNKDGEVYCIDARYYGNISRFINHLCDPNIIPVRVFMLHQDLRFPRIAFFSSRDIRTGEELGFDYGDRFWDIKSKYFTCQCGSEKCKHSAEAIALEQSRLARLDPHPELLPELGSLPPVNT
Compound,"activity, negative = inhibition",Potency
COc1ccc(C(C)C)cc1S(=O)(=O)Nc1ccccn1,inactive: -28.9% [at 2.33 µM],
CCOc1cc(-c2n[nH]c(=S)n2Cc2ccccc2)ccc1OC(F)F,,"inconclusive: 1.58 µM [inhibitor, full curve, poor fit]"
CC(C)c1ccc(NS(=O)(=O)c2ccc3nc(-c4ccccc4)[nH]c3c2)cc1,,inactive
COc1ccc(NCc2cc3cc4c(cc3n(CC(=O)Nc3cc(C)ccc3C)c2=O)OCCO4)cc1,,inactive
O=c1c2ccccc2nc(N/N=C/c2ccc(O)cc2)n1O,inconclusive: -134% [inhibitor],
CCOc1ccccc1NC(=O)C(CC)Sc1nc2ccncc2[nH]1 (configuration not stated),,active: 8.91 µM
N#Cc1cccc(N=Cc2c(O)ccc3ccccc23)c1,,active: 1.41 µM
CN(Cc1ccccc1)C(=O)CCS(=O)(=O)c1ccc2c(c1)n(C)c(=O)c(=O)n2C,,"inconclusive: 39.8 µM [inhibitor, single point]"
Cc1ccc(NC(=O)C2CCCN2S(=O)(=O)c2cccc3cccnc23)cc1F (configuration not stated),,"inconclusive: 50.1 µM [inhibitor, partial curve]"
CCOc1ccc(C2CC(=O)N(c3cccc(F)c3)C3=C2C(=O)OC3)cc1 (configuration not stated),,inactive
COc1ccc(/C=C2\CCn3c2nc2ccccc2c3=O)cc1OC,,inactive
Cc1ccc(-c2cn(-c3cccc(Cl)c3)c(S(=O)(=O)CC(=O)Nc3ccccc3F)n2)cc1,,"inconclusive: 39.8 µM [inhibitor, single point]"
Cc1ccc(NC(=S)NNC(=O)c2nn(C)c(C)c2Cl)cc1,,"inconclusive: 17.8 µM [inhibitor, single point]"
COc1ccc(NC(=O)c2ccc3c(c2)sc2nc(-c4ccc(OC)cc4)cn23)cc1,,"inconclusive: 22.4 µM [inhibitor, single point]"
O=C(C1CCN(S(=O)(=O)c2cccc3nsnc23)CC1)N1CCc2ccccc2C1,,"inconclusive: 79.4 µM [inhibitor, single point]"
NS(=O)(=O)c1ccc(NC(=O)Nc2ccc(S(N)(=O)=O)cc2)cc1,,inactive
O=C(c1ccco1)N1CCN(C(=O)C2Cc3ccccc3CN2S(=O)(=O)c2ccc(F)cc2)CC1 (configuration not stated),,"inconclusive: 56.2 µM [inhibitor, partial curve, poor fit]"
Cc1ccccc1C(=O)NC(CC(C)C)C(=O)Nc1ccc(S(N)(=O)=O)cc1 (configuration not stated),,"inconclusive: 17.8 µM [inhibitor, partial curve, poor fit]"
Cc1onc(-c2ccccc2)c1C(=O)NC1CCC(C)CC1 (configuration not stated),,inactive
Cn1c(=O)c2cc(C(=O)NCCCN3CCN(c4ccccc4F)CC3)sc2c2ccccc21,,inactive
Cc1cc(C(=O)N/N=C/c2ccc3c(c2)OCO3)c(C)n1-c1ccc(F)cc1,,"inconclusive: 50.1 µM [inhibitor, partial curve, poor fit]"
O=c1[nH]c(SCc2ccc(Cl)cc2)nc2c1CCC2,,inactive
CCOC(=O)N1CCN(C(=O)/C=C/c2ccc([N+](=O)[O-])cc2)CC1,,inactive
Cc1ccc(Cn2ccc(NC(=O)c3cc(-c4ccc5c(c4)OCO5)on3)n2)cc1,,inactive

Compound,"activity, negative = inhibition",Potency
Cc1ccccc1Cn1c(=O)n(Cc2ccc3c(c2)OCO3)c(=O)c2oc3ccccc3c21,,inactive
CC(C)n1c2ccccc2c2nnc(SCC(=O)Nc3ccccc3C(=O)O)nc21,,"inconclusive: 0.501 µM [inhibitor, full curve, poor fit]"
COc1ccc(NC(C)=O)cc1NC(C)c1nc2sc(C)c(C)c2c(=O)[nH]1 (configuration not stated),,"inconclusive: 39.8 µM [inhibitor, partial curve, poor fit]"
Oc1ccc(-c2nc3ccccn3c2NCc2ccc3c(c2)OCO3)cc1,,"inconclusive: 35.5 µM [inhibitor, partial curve]"
Cc1ccc(NC(=O)CN2C(=O)CCc3cc(S(=O)(=O)N4CCOCC4)ccc32)cc1N(C)C,,inactive
NC(=O)C1CCN(C(=O)COc2ccc(Nc3ccccc3)cc2)CC1,inconclusive: -74.4% [inhibitor],
O=C(NN1CCN(Cc2ccccc2)CC1)c1ccc(Cl)cc1,,"inconclusive: 8.91 µM [inhibitor, partial curve, poor fit]"
O=C(c1ccc(C(F)(F)F)cc1)N1CCC(c2noc(-c3ccc(S(=O)(=O)N4CCCC4)cc3)n2)CC1,,inactive
COc1cc(CNCc2ccc(C)cc2)cc(OC)c1OC,,active: 28.2 µM
Cc1nn(Cc2ccc(Cl)c(Cl)c2)c(C)c1NC(=O)c1cc(C2CC2)on1,,"inconclusive: 35.5 µM [inhibitor, partial curve, poor fit]"
CCN(CC)c1ccc(S(=O)(=O)N2CCOCC2)cc1NC(=O)CSc1nnc(N)s1,,"inconclusive: 89.1 µM [inhibitor, single point]"
O=C(Nc1ccc(S(=O)(=O)N2CCCC2)cc1Cl)C1=COCCO1,,"inconclusive: 31.6 µM [inhibitor, single point]"
O=C(Nc1ccccc1O)c1ccccc1O,,"inconclusive: 39.8 µM [inhibitor, single point]"
O=C(C1=C(O)C(=O)N(Cc2ccco2)C1c1cccnc1)c1cc2ccccc2o1 (configuration not stated),,"inconclusive: 3.55 µM [inhibitor, single point]"
CSCC[C@H](NC(=O)c1ccc2ccccc2c1)C(=O)N1CCC2(CC1)NCCc1[nH]cnc12,,active: 44.7 µM
COc1cccc(/C=N/NC(=O)C(=O)N2CCCC2)c1O,,"inconclusive: 8.91 µM [inhibitor, single point]"
C/C(CC(=O)N1CCCC1)=N\NC(=O)c1cc2ccccc2cc1O,,"inconclusive: 50.1 µM [inhibitor, partial curve, poor fit]"
Cc1cc[n+](-c2[nH]c(=O)sc2/C=N/NC(=O)c2ccccc2[O-])cc1C,,"inconclusive: 79.4 µM [inhibitor, single point]"
COc1ccc(-c2noc(CCC(=O)N(C)c3ccccc3C)n2)cc1,,inactive
CC(=O)Nc1ccc(NC(=O)CSc2ncc(C(=O)Nc3ccc(F)cc3)c(=O)n2C)cc1,,inactive
Cc1ccccc1C(=O)N(Cc1ccc(N(C)C)cc1)Cc1ccco1,,active: 12.6 µM
COc1ccccc1-c1cc(Nc2ccn[nH]2)ncn1,inactive: 2.27% [at 0.501 µM],
COc1cc(SC)ccc1C(=O)Nc1cccc(S(=O)(=O)NC2=NCCC2)c1,,"inconclusive: 1.58 µM [inhibitor, partial curve, poor fit]"
Cc1ccc(NC(=O)CCC(=O)N/N=C/c2cccnc2)cc1,,"inconclusive: 50.1 µM [inhibitor, partial curve]"

Compound,"activity, negative = inhibition",Potency
COc1ccc(N2CCN(C(=O)CCNS(=O)(=O)c3cccs3)CC2)cc1,,active: 25.1 µM
O=C(OCc1nc2scc(-c3ccccc3)c2c(=O)[nH]1)c1cccc([N+](=O)[O-])c1,,active: 39.8 µM
Cc1ccc(NC(=O)CCCC2CCCCC2)c(O)c1,,inactive
CCCN(c1ccc(C(C)C)cc1)S(=O)(=O)c1ccc2c(c1)CCN2C(=O)CC,,inactive
COc1ccc(C(=O)NCCS(=O)(=O)NCCc2ccccc2)cc1,inactive: 6.23% [at 0.501 µM],
CCC12CN3CC(CC)(CN(C1)C3c1c(O)ccc3ccccc13)C2=O (configuration not stated),,"inconclusive: 3.55 µM [inhibitor, partial curve, poor fit]"
COC(=O)c1cc(S(=O)(=O)N2CCCC2)c(Cl)cc1Cl,,"inconclusive: 15.8 µM [inhibitor, single point]"
O=C(Nc1cc(Cl)c(O)c(Cl)c1)C1CCCO1 (configuration not stated),,"inconclusive: 1.58 µM [inhibitor, full curve, poor fit]"
CCCC1CCc2c(c3ccccc3[nH]c2=O)O1 (configuration not stated),,"inconclusive: 6.31 µM [inhibitor, partial curve, poor fit]"
Cc1cc(N2C(=O)C=CC2=O)c([N+](=O)[O-])cc1C,,active: 1.26 µM
CCOc1cc(N2CCOCC2)c(OCC)cc1NC(=O)CC12CC3CC(CC(C3)C1)C2,,active: 12.6 µM
COc1ccc(/C=N/c2c(-c3ccco3)nc3ccccn23)cc1OC,,active: 70.8 µM
COc1ccc(OC)c(-c2nc3c(C#N)c[nH]n3c2NC2CCCCC2)c1,,inactive
Cc1cccc(OCC(=O)NC(Cc2c[nH]c3ccccc23)C(=O)O)c1C (configuration not stated),,active: 39.8 µM
c1cc2[nH]snc2c2nc(C3CC3)nc12,,"inconclusive: 50.1 µM [inhibitor, partial curve, poor fit]"
CC(=O)Nc1ccc(NC(=O)C(C)OC(=O)CCc2c[nH]c3ccccc23)cc1 (configuration not stated),,"inconclusive: 14.1 µM [inhibitor, partial curve, poor fit]"
COC(=O)C1CCN(C(=O)COC(=O)CC(NC(C)=O)c2ccccc2)CC1 (configuration not stated),,"inconclusive: 31.6 µM [inhibitor, single point]"
O=S(=O)(C/C(=C/CO)S(=O)(=O)c1ccccc1)c1ccccc1,inconclusive: -88.1% [inhibitor] [at 102 µM],
S=c1[nH]nc(COc2ccccc2)n1-c1ccccc1,,active: 2.51 µM
CCc1cccc(Oc2nn[nH]n2)c1,,"inconclusive: 79.4 µM [inhibitor, single point]"
Cc1ccc(NC(=S)NC(=O)C2CC2)c(C)c1,,inactive
Cc1nc(C)c(C(=O)N2CCCC(CCC(=O)NCc3ccc(F)c(F)c3)C2)s1 (configuration not stated),,inactive
CC1(C)CC(=O)C(C(=O)c2ccccc2)C(=O)C1,,"inconclusive: 79.4 µM [inhibitor, partial curve, poor fit]"
COc1cccc(-n2c(Cc3cc(=O)[nH]c(=O)[nH]3)nnc2SCC(=O)N2CCCCCC2)c1,,"inconclusive: 89.1 µM [inhibitor, single point]"
